From PubChem BioAssay AID488969 (Vanderbilt High Throughput Screening Facility, 2010)
Several values for one entry are separate records, joined by “and”; a condition that tells them apart may be missing. Equal values may be shown once. Over roughly 110,000 compounds, “z-score” has its median near -0.1; the highest 2% begin near 2. Some of the results follow. Activity calls are given as the source filed them.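 Rule for the calls: active = z-score in the third read window above 3 or below -3; inactive = the rest.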

The molecules below were run against Metabotropic glutamate receptor 8 (Rattus norvegicus) (UniProt P70579) (assay: rat mGluR8 modulators via GIRK flux, primary screen, cell-based, thallium flux, HTS (AID 488969)). Details: HEK293 rat mGluR8, GIRK (G protein-gated inwardly rectifying potassium channel) thallium flux, FluoZin2; at 10 µM; stronger effect = higher value; submaximal glutamate (EC20) added with thallium.
Sequence of UniProt P70579 (P70579 whole entry, looked up): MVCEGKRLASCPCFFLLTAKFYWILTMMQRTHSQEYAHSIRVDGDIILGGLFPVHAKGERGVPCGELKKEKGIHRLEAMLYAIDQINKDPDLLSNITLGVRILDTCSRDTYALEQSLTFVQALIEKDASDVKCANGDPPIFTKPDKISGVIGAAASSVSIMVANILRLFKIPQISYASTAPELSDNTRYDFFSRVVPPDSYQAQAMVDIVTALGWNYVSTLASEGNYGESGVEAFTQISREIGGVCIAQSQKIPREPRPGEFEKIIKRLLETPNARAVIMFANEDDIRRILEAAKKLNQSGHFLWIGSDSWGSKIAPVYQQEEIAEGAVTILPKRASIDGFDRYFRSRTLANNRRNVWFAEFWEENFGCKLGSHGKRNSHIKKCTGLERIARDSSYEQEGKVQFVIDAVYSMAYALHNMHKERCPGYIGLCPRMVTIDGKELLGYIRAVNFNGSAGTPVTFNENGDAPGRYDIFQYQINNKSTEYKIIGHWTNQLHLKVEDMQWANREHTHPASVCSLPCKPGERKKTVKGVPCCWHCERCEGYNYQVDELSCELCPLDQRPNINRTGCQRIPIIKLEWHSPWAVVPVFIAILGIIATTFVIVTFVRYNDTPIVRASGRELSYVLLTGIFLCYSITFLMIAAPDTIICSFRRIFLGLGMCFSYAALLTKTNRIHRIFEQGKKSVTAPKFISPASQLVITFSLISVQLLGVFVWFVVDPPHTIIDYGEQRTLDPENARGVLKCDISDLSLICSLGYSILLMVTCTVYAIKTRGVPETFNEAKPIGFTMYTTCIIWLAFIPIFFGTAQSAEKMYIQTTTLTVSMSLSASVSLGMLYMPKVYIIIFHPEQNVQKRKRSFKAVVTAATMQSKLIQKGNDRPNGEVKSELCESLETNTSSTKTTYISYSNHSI
For `CCc1c(C#N)c(SCCC(=O)Nc2ccc(F)cc2)nc2c1C(=O)CC(C)(C)C2`, the z-score was -1. Work on `CCOC(=O)c1cccc(NC(=O)CCS(=O)(=O)c2ccc(Br)s2)c1` yielded a z-score of 0.288. Work on `COc1cc(CNn2nnnc2N)ccc1OCC(=O)NC(C)(C)C` yielded a z-score of -0.0504. `C=CCC(CC=C)(NC(=O)c1ccccc1)c1ccccc1` gave a z-score of -0.136. `N#C/C(=C/c1ccc(N2CCCCC2)o1)C(=O)Nc1ccc(Cl)cc1` was tested, and the z-score was 0.159. `Cc1cnnn1-c1ccc(C(=O)CCl)cc1` showed a z-score of -0.179. Molecule `Cn1c(O)c(C(C#N)=C2N=c3ccccc3=N2)c2ccccc21` has a z-score of -0.0436. `FC(F)(F)c1cc(Oc2ccccc2)nc(-c2ccccn2)n1` showed a z-score of -0.15. `O=C(CNc1ccc2c(c1)OCO2)N/N=C\c1cn(Cc2ccc(F)cc2)c2ccccc12` showed a z-score of -0.225. `CC(C)OC(=O)CSc1nnc(-c2ccc(C(C)(C)C)cc2)n1N` gave a z-score of 0.0591. In the case of `CCNc1nc(C)nc2c1oc1ccccc12`, the z-score is reported as -1.25. With `CS/C(=N\S(=O)(=O)c1cccs1)NC(=O)CSc1nc2ccccc2s1` the z-score was -1.16. `CCc1ccc(N=CC23c4ccccc4C(c4ccccc42)C2C(=O)N(c4ccc(OC)cc4)C(=O)C23)cc1` (stereo not drawn) showed a z-score of 0.16. `COc1ccc2c(c1)C1NC(=S)NC(C)(O2)C1C(=O)Nc1ccccc1C` (stereo not drawn) showed a z-score of 0.0257. `COc1ccc(CCc2nc(C)ccc2O)cc1` was tested, and the z-score was -0.12 and -0.077. In the case of `Cc1ccc(N2CC(C(=O)N/N=C/c3cccc([N+](=O)[O-])c3)CC2=O)cc1` (stereo not drawn), the z-score is reported as -0.282. Work on `CCOC(=O)/C(C#N)=C/c1cc(C)n(-c2ccccc2)c1C` yielded a z-score of 0.812. For `CCCc1cc(=O)[nH]c(SCC(=O)NCCCC(=O)OCC)n1`, the z-score was -0.306. With `O=C(Cn1cccc1)N1CCN(C(c2ccccc2)c2ccccc2)CC1` the z-score was -0.556. Molecule `Cc1cc(=O)[nH]c(SCc2nc3ccccc3n2Cc2ccccc2)n1` has a z-score of -0.21. `CCCCn1c(=O)nc2n(-c3ccccc3)c3ccccc3cc-2c1=O` gave a z-score of 1.87. Work on `O=C(CC1CCCCC1)OCn1nnc2ccccc2c1=O` yielded a z-score of -0.459. With `Cc1nc(SCC(=O)N2CCOCC2)c2ccsc2n1` the z-score was 0.0134. `O=C(CCSCc1cccc(Cl)c1)NCCC1=CCCCC1` was tested, and the z-score was -0.242. With `C=CCOc1ccc(/C=N/NC(=O)C(C)Sc2ccccn2)cc1OC` (stereo not drawn) the z-score was -0.549. `N#CC1(C#N)C(c2ccccc2)OC23CCCCC2C1(C#N)C(=N)O3` (stereo not drawn) was tested, and the z-score was -0.415. `NC(=S)NNc1cc(Cl)cc(Cl)c1` gave a z-score of -0.273. In the case of `CCOC(=O)c1ccc(N/C=C2/CCCC(C)C2=O)cc1` (stereo not drawn), the z-score is reported as 0.315. `Cc1ccc[n+](C(C)C(=O)c2ccc(-c3ccccc3)cc2)c1` (stereo not drawn) was tested, and the z-score was -0.156. `O=S(=O)(c1ccccc1)N1N=C(c2cccs2)CC1c1ccc(Br)cc1` (stereo not drawn) showed a z-score of -0.39. Work on `Oc1ccc(-c2nccc(-c3cccs3)n2)cc1` yielded a z-score of -0.133. `C/C(=N/NC(=O)c1ccc2c(c1)OCO2)c1ccc(NC(=O)C(F)(F)F)cc1` gave a z-score of -0.151. `CC(OC(=O)CNC(=O)C12CC3CC(CC(C3)C1)C2)C(=O)Nc1ccc(N2CCOCC2)cc1` (stereo not drawn) was tested, and the z-score was -0.563. `O=C(Nc1ccccc1)C1=C(O)CC(c2ccoc2)CC1=Nc1ccccc1` (stereo not drawn) showed a z-score of -0.135. In the case of `Cn1nnnc1SCC(=O)Nc1ccccc1C(=O)NC1CC1`, the z-score is reported as 0.311. In the case of `CCCCn1c(CNC(=O)c2cccs2)nc2ccccc21`, the z-score is reported as -0.664. With `COC(=O)CN(c1ccccc1)S(=O)(=O)c1ccccc1` the z-score was -0.0839. In the case of `CC1CN(C(=O)c2c(Br)cnn2C)CC(C)O1` (stereo not drawn), the z-score is reported as -0.107. `COc1ccc(S(=O)(=O)NC2CC(C)(C)NC(C)(C)C2)c(C)c1C` gave a z-score of 0.179. `COc1ccc(C(=O)CSc2nnc(-c3ccco3)n2C)cc1` gave a z-score of -0.265. Work on `COc1cc(-c2nc(C(F)(F)F)c(OC)o2)cc(OC)c1OC` yielded a z-score of -0.583. Molecule `COc1ccc(-c2c3c(=O)n(C)c(=O)n(C)c3c3nnc4ccccc4n23)cc1` has a z-score of -0.474. Work on `CC(C)Oc1ccccc1-c1nc(SCC(=O)O)n[nH]1` yielded a z-score of 0.179. Molecule `C(=C\c1nc2ccccc2[nH]1)/c1ccccc1` has a z-score of -0.0218. In the case of `Cn1c2ccccc2c2cnn(CC(=O)O)c(=O)c21`, the z-score is reported as -0.137. In the case of `Cc1cc(N/N=C/c2ccc(O)cc2O)nc(-n2nc(C)cc2C)n1`, the z-score is reported as -0.153. `Cc1ccc(S(=O)(=O)Nc2nc3ccc(S(=O)(=O)N4CCCC4)cc3s2)cc1` was tested, and the z-score was -0.669. With `O=C(NC1CCCCC1)NC1(C(=O)N2CCN3CCCC3C2)CCCCC1` (stereo not drawn) the z-score was -0.0938. For `CCc1nnc(NS(=O)(=O)c2ccc(N=Cc3c(C)[nH]n(-c4cccc(Cl)c4)c3=O)cc2)s1`, the z-score was -0.666. Molecule `O=C(O)/C=C/C(=O)N1CCN(C(=O)/C=C/C(=O)O)CC1` has a z-score of -0.184. `COc1ccc(C2NC(=S)N(c3ccccc3)C(C)=C2C(=O)Nc2ccccc2)cc1` (stereo not drawn) gave a z-score of 0.141. For `O=C(Oc1ccc2ccc(=O)oc2c1)N1CCOCC1`, the z-score was -0.494. `C=CCSc1n[nH]c(-c2ccccc2)n1` showed a z-score of 0.708. Work on `O=C(COC(=O)/C=C/c1cccc(C(F)(F)F)c1)NCc1ccccc1` yielded a z-score of -0.149. `OCCNc1ncnc2c1c(-c1ccccc1)c(-c1ccccc1)n2Cc1ccco1` showed a z-score of -0.463. With `Cc1sc2ncnc(SC(C)C(=O)N3c4ccccc4Sc4ccccc43)c2c1C` (stereo not drawn) the z-score was 2.19. `O=C(NC1CC1)c1ccc2c(c1)ncn2C1CCCC1` gave a z-score of -0.16. `CCC(C)c1ccc2oc(-c3ccc(NC(=O)Cn4cnc5c(=O)n(C)c(=O)n(C)c54)cc3)nc2c1` (stereo not drawn) gave a z-score of 1.46. `CC1CN(c2cc(=O)n(-c3cccc(Br)c3)c(=O)[nH]2)CC(C)O1` (stereo not drawn) was tested, and the z-score was -0.415. In the case of `CCS(=O)(=O)c1nc2ccccc2n1CC(=O)N1CCOCC1`, the z-score is reported as 0.0592. `O=C(Nc1ccccc1C(=O)OCn1nnc2ccccc2c1=O)c1ccco1` gave a z-score of -0.216. In the case of `CC(C)(C)NS(=O)(=O)c1cnc(Cl)c(Cl)c1`, the z-score is reported as -0.154. `O=C(CC(Nc1ccc(F)cc1)C(=O)O)c1ccccc1` (stereo not drawn) was tested, and the z-score was 0.144. In the case of `CN(C)CCCNCCCNC(=O)/C(=N\O)c1ccccn1`, the z-score is reported as -0.161. `O=C(COC(=O)c1ccccc1C(=O)c1ccccc1)c1ccco1` showed a z-score of 0.281. With `CCCCNC(=O)CNC(=S)N(Cc1cc(OC)c(OC)c(OC)c1)C1CCCC1` the z-score was -0.231. `CC(C)Cc1nc2oc3c(NCCCN4CCOCC4)ncnc3c2c2c1CCC2` gave a z-score of 0.0144. Work on `COc1ccc(NC(=O)c2ccc3snnc3c2)cc1` yielded a z-score of -0.112. `COC(C(=O)NC(C(C)C)C(C)C)c1ccccc1` (stereo not drawn) showed a z-score of -0.183. Molecule `COc1ccc(C2C(C(=O)Nc3ccccc3OC)=C(C)Nc3nnnn32)c(OC)c1` (stereo not drawn) has a z-score of 0.0984. `CC(=O)N1CCN(C(=O)Nc2cccc(C(F)(F)F)c2)CC1` gave a z-score of -0.172. `CCN1CCC(NC(=O)c2cc(OC)c(OC)cc2OC)CC1` showed a z-score of 0.0595. `O=C(Nc1ccccc1C(=O)N/N=C/c1ccc(F)cc1)c1ccccc1Br` gave a z-score of -0.184. `CCOC(=O)C1C(=O)C=C(c2ccc(Br)cc2)CC1c1ccco1` (stereo not drawn) gave a z-score of -0.187. Work on `O=S(=O)(c1ccc(Cl)c(NC(=S)N/N=C/c2ccc(O)cc2)c1)N1CCOCC1` yielded a z-score of -1.78. `Cc1cc(NC(=O)CCCN2C(=O)/C(=C/c3cccs3)SC2=S)no1` was tested, and the z-score was 0.155. Work on `O=C(CN1C2=NCCCN2c2ccccc21)c1ccc(Cl)cc1Cl` yielded a z-score of 0.287. Work on `O=C(CSc1nnc(-c2cccs2)o1)N1CCCCC1` yielded a z-score of 0.00857. `O=C(NCc1ccco1)c1ccc(Cn2c(=O)c3ccccc3n(Cc3ccc(Cl)cc3)c2=O)cc1` was tested, and the z-score was -0.135. `CCOC(=O)/C(C#N)=C1/C=CN(c2ccc(C)cc2)C=N1` was tested, and the z-score was -0.217. Molecule `COc1cccc(OCC(=O)O/N=C(\N)c2ccc(OC)c(OC)c2)c1` has a z-score of -0.659. In the case of `CC(CC(=O)NC(C)c1ccc2c(c1)OCCO2)c1ccccc1` (stereo not drawn), the z-score is reported as -0.322. Molecule `O=C(CSc1nnc(-c2cccnc2)n1Cc1ccco1)c1ccc(Cl)c(Cl)c1` has a z-score of -1.8. `CCOc1ccc(NC(=O)CSCc2cnn(-c3ccccc3)c2-n2cccc2)cc1` showed a z-score of -0.0203. Work on `CCN(CC)CCN1CCn2c3c(c4cc(C)ccc42)CCCC31` (stereo not drawn) yielded a z-score of 1.08. `Cn1c(=O)c2c(ncn2CC(O)CNc2ccc(Br)cc2)n(C)c1=O` (stereo not drawn) was tested, and the z-score was -0.214. `COc1ccc(CC2C(=O)OC(C)(C)OC2=O)cc1` was tested, and the z-score was 1.11. `O=C(CCCC(=O)N1CCN(c2ccc([N+](=O)[O-])cc2)CC1)c1ccccc1` was tested, and the z-score was -0.912. Work on `CCSc1sccc1C1C(C#N)=C(N)N(c2cccnc2)C2=C1C(=O)CCC2` (stereo not drawn) yielded a z-score of -0.331. With `COc1ccc(Cn2nnnc2C(c2cccnc2)N2CCN(c3ccc(O)cc3)CC2)cc1` (stereo not drawn) the z-score was 0.179. `C/C(=N/N=C1/NC(=O)CC(C(=O)O)S1)c1ccccc1` (stereo not drawn) showed a z-score of 0.153. `CNc1nc(-c2ccccn2)nnc1-c1ccccc1` showed a z-score of 0.56. In the case of `COCCn1c(C2CCCCC2)nc2sc3ccccc3c(=O)c2c1=O`, the z-score is reported as 0.498. `N#C/C(=C\c1cccs1)C(=O)NCc1ccco1` gave a z-score of -0.284. `Cc1cccc(C(=O)Nc2ccc(C(=O)/C=C/c3cccs3)cc2)c1` gave a z-score of -0.291. Molecule `O=C(N/N=C/C1=C(N2CCOCC2)C(=C\c2ccccc2)/CC1)Nc1ccccc1` has a z-score of -0.122. For `CC(C)C(NC(=O)c1ccco1)C(=O)NCC(c1ccco1)N(C)C` (stereo not drawn), the z-score was -0.23. Molecule `CS(=O)(=O)N1CCC(C(=O)Nc2c(F)cccc2F)CC1` has a z-score of 0.93. With `Cc1cc2n(n1)SC(Nc1cc(Cl)ccc1Cl)N2` (stereo not drawn) the z-score was -0.803. `C=CCn1c(CCCNC(=O)CCC)nc2ccccc21` gave a z-score of -0.191. Molecule `O=C(O)C1CCCCC1C(=O)Nc1ccccc1C(=O)N1CCN(c2ccc(F)cc2)CC1` (stereo not drawn) has a z-score of -0.207. In the case of `CCCCCN1CC(O)=C(c2ccccc2)C1=N`, the z-score is reported as 0.125. For `Cc1c(C#N)c2ccccc2n1CC(=O)NCC1CCCO1` (stereo not drawn), the z-score was 0.569. In the case of `CCOc1ccccc1OCCCC(=O)NC1CCCc2ccccc21` (stereo not drawn), the z-score is reported as -0.245. In the case of `N#Cc1sc2nc(C3CC3)cc(-c3ccccc3)c2c1N`, the z-score is reported as -0.157. `C=CCNc1nnc(C)c2ccccc12` gave a z-score of 0.0217. `O=C(C1CC(c2ccc(F)cc2)=NO1)N1CCN(c2ccccc2)CC1` (stereo not drawn) was tested, and the z-score was -0.045. For `O=C(Nc1ccc(F)c(F)c1)NC1CCCCC1`, the z-score was active: 3.01. Molecule `CN1c2ccccc2N(C)C1(C)c1ccccc1` has a z-score of -0.164. For `O=[N+]([O-])c1ccc(N2CCCC2)cc1NC1CC1`, the z-score was -0.752. `Nc1ccc2c(c1)ncn2CCCn1cnc2cc(N)ccc21` gave a z-score of -0.064. In the case of `Cc1ccccc1CNC(=O)c1ccccc1N`, the z-score is reported as 0.364. For `O=C(CNC(=S)N(CCCN1CCOCC1)Cc1cccs1)NC1CC1`, the z-score was 0.603.
